# According to the supplement of paper PMC4967469:
# Compound: NC1(c2ccc(-c3nc4ccn5c(=O)[nH]nc5c4cc3-c3ccccc3)cc2)CCC1 [MK-2206]
# Assay: Viability of human cancer cell lines after 72 h of drug (GDSC screen)
# Method: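 Human cancer cell lines in 384-well plates, medium with 10% serum, drug for 72 h over a 256-fold dose range (nine 2-fold or five 4-fold steps up to the top dose). Adherent lines were fixed and stained with the nucleic acid dye Syto60, suspension lines read with resazurin; signal relative to control wells, capped at 0 and 100%. One two-parameter sigmoid per drug and line, fitted in a mixed model over all curves with the slope shared within a line.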
Cell Line,AUC,IC50 [µM]
"HCC202 (breast, adherent, top dose 4 µM)",0.854,> 4
"DU-145 (prostate, adherent, top dose 2 µM)",0.768,0.832
"NOS-1 (osteosarcoma, adherent, top dose 4 µM)",0.841,3.76
"SLVL (B-cell lymphoma, suspension, top dose 4 µM)",0.965,> 4
"SW780 (bladder, adherent, top dose 4 µM)",0.906,> 4
"NCI-H64 (small cell lung carcinoma, suspension, top dose 4 µM)",0.929,3.59
"OVCAR-3 (ovary, adherent, top dose 4 µM)",0.77,1.67
"SCC-25 (head and neck, adherent, top dose 4 µM)",0.84,3.29
"MIA-PaCa-2 (pancreas, adherent, top dose 4 µM)",0.733,1.25
"5637 (bladder, adherent, top dose 4 µM)",0.934,> 4
"JVM-3 (lymphoid neoplasm, suspension, top dose 4 µM)",0.903,> 4
"GCIY (stomach, adherent, top dose 4 µM)",0.922,> 4
"C3A (liver, adherent, top dose 4 µM)",0.987,> 4
"OVISE (ovary, adherent, top dose 4 µM)",0.638,0.683
"L-428 (Hodgkin lymphoma, suspension, top dose 4 µM)",0.993,> 4
"MOLM-13 (acute myeloid leukaemia, suspension, top dose 4 µM)",0.865,3.16
"EW-13 (Ewing sarcoma, suspension, top dose 4 µM)",0.944,> 4
"SK-HEP-1 (liver, adherent, top dose 4 µM)",0.967,> 4
"LCLC-97TM1 (large cell lung carcinoma, adherent, top dose 4 µM)",0.912,> 4
"NCI-H661 (large cell lung carcinoma, adherent, top dose 4 µM)",0.791,2.23
"CP66-MEL (melanoma, adherent, top dose 4 µM)",0.841,3.36

Cell Line,AUC,IC50 [µM]
"DoTc2-4510 (cervix, adherent, top dose 4 µM)",0.949,> 4
"DOHH-2 (B-cell lymphoma, suspension, top dose 4 µM)",0.768,1.47
"MY-M12 (leukaemia, suspension, top dose 4 µM)",0.755,1.52
"LU-139 (small cell lung carcinoma, suspension, top dose 4 µM)",0.896,> 4
"SK-MEL-5 (melanoma, adherent, top dose 4 µM)",0.856,> 4
"EW-1 (Ewing sarcoma, semi-adherent, top dose 4 µM)",0.921,> 4
"BxPC-3 (pancreas, adherent, top dose 4 µM)",0.931,> 4
"SK-OV-3 (ovary, adherent, top dose 4 µM)",0.764,1.81
"HuP-T4 (pancreas, adherent, top dose 4 µM)",0.877,> 4
"HAL-01 (lymphoblastic leukaemia, suspension, top dose 4 µM)",0.508,0.262
"SIMA (neuroblastoma, adherent, top dose 4 µM)",0.868,> 4
"NB(TU)1-10 (neuroblastoma, adherent, top dose 4 µM)",0.993,> 4
"KG-1 (acute myeloid leukaemia, suspension, top dose 4 µM)",0.99,> 4
"IHH-4 (thyroid, semi-adherent, top dose 4 µM)",0.814,1.66
"KYSE-510 (oesophagus, adherent, top dose 4 µM)",0.912,> 4
"PEO1 (ovary, adherent, top dose 4 µM)",0.819,2.4
"SUP-M2 (anaplastic large cell lymphoma, suspension, top dose 4 µM)",0.976,> 4
"NCI-H727 (lung carcinoid, adherent, top dose 4 µM)",0.826,> 4
"PC-3 (prostate, adherent, top dose 2 µM)",0.875,> 2
"SNU-423 (liver, adherent, top dose 4 µM)",0.76,1.63
"SK-MES-1 (lung squamous cell carcinoma, adherent, top dose 4 µM)",0.902,> 4

Cell Line,AUC,IC50 [µM]
"GOTO (neuroblastoma, adherent, top dose 4 µM)",0.966,> 4
"SBC-5 (small cell lung carcinoma, adherent, top dose 4 µM)",0.993,> 4
"NCI-H2342 (lung adenocarcinoma, adherent, top dose 4 µM)",0.882,> 4
"TCCSUP (bladder, adherent, top dose 4 µM)",0.953,> 4
"OVCA433 (ovary, adherent, top dose 4 µM)",0.825,2.77
"JHH-1 (liver, adherent, top dose 4 µM)",0.652,0.685
"RERF-LC-MS (lung adenocarcinoma, adherent, top dose 4 µM)",0.986,> 4
"SU-DHL-4 (B-cell lymphoma, suspension, top dose 4 µM)",0.788,1.26
"SK-MEL-2 (melanoma, adherent, top dose 4 µM)",0.879,> 4
"NUGC-3 (stomach, adherent, top dose 2 µM)",0.95,> 2
"CHSA0108 (chondrosarcoma, adherent, top dose 4 µM)",0.828,3
"MEL-JUSO (melanoma, adherent, top dose 4 µM)",0.787,1.97
"HCC38 (breast, adherent, top dose 4 µM)",0.986,> 4
"EB-3 (Burkitt lymphoma, suspension, top dose 4 µM)",0.984,> 4
"RKN (ovary, adherent, top dose 4 µM)",0.839,2.95
"SNU-81 (large intestine, adherent, top dose 4 µM)",0.698,1.1
"BICR22 (head and neck, adherent, top dose 4 µM)",0.799,2.27
"RH-18 (rhabdomyosarcoma, adherent, top dose 4 µM)",0.895,> 4
"COLO-678 (large intestine, semi-adherent, top dose 4 µM)",0.98,> 4
"BB49-HNC (head and neck, adherent, top dose 4 µM)",0.887,> 4
"NCI-H1435 (lung adenocarcinoma, semi-adherent, top dose 4 µM)",0.992,> 4

Cell Line,AUC,IC50 [µM]
"BB30-HNC (head and neck, adherent, top dose 4 µM)",0.789,1.73
"MHH-NB-11 (neuroblastoma, adherent, top dose 4 µM)",0.921,> 4
"NCI-H2009 (lung adenocarcinoma, adherent, top dose 4 µM)",0.771,1.62
"NCI-H929 (myeloma, suspension, top dose 4 µM)",0.237,0.0501
"OVCAR-4 (ovary, adherent, top dose 4 µM)",0.904,> 4
"SUP-T1 (T-cell lymphoblastic leukaemia, suspension, top dose 4 µM)",0.874,3.27
"Mo-T (hairy cell leukaemia, suspension, top dose 4 µM)",0.552,0.347
"NB7 (neuroblastoma, adherent, top dose 4 µM)",0.912,> 4
"SF268 (glioma, adherent, top dose 4 µM)",0.854,3.54
"HN (head and neck, adherent, top dose 4 µM)",0.898,> 4
"SW1710 (bladder, adherent, top dose 4 µM)",0.803,2.06
"PCI-30 (head and neck, adherent, top dose 4 µM)",0.863,> 4
"HuO9 (osteosarcoma, adherent, top dose 4 µM)",0.665,0.759
"ARH-77 (myeloma, suspension, top dose 4 µM)",0.988,> 4
"NCI-H2066 (small cell lung carcinoma, adherent, top dose 4 µM)",0.752,2.32
"KP-1N (pancreas, adherent, top dose 4 µM)",0.955,> 4
"OMC-1 (cervix, adherent, top dose 4 µM)",0.768,1.57
"NH-12 (neuroblastoma, adherent, top dose 4 µM)",0.926,> 4
"PA-TU-8902 (pancreas, adherent, top dose 4 µM)",0.919,> 4
"KP-2 (pancreas, adherent, top dose 4 µM)",0.894,> 4

# The IC50 comes from the fitted curve, where viability falls to half of the control; a fit beyond the top or the lowest dose is shown as a bound at that dose. AUC is the area under the same curve over the 256-fold range up to the top dose, as a fraction; values near 1 show little effect.
